The list shows a part of the results. Repeats are few or missing, and single values can be far off.
test system: WM3619; assay: cell count relative to DMSO control; melanoma cells; higher = more viable cells; conditions: library dose: low library concentration; 72 h
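Note: cell number obtained by counting DAPI-stained nuclei in high-throughput microscope images with image analysis software, screen run in 1,536-well plates.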

Structure (SMILES)	cell count [%]
Clc1ccc(Nc2nnc(Cc3ccncc3)c3ccccc23)cc1 [vatalanib] + C[C@@H]1CCN(C(=O)CC#N)C[C@@H]1N(C)c1ncnc2[nH]ccc12 [CP690550] (first compound 2 µM, partner dose 1 µM)	83.1
Cn1c(Nc2ccc(C(F)(F)F)cc2)nc2cc(Oc3ccnc(-c4ncc(C(F)(F)F)[nH]4)c3)ccc21 + OCCn1cc(-c2cnc3nnn(Cc4ccc5ncccc5c4)c3n2)cn1 [PF04217903] (first compound 0.08 µM, partner dose 1 µM)	69.1
Cn1c(Nc2ccc(C(F)(F)F)cc2)nc2cc(Oc3ccnc(-c4ncc(C(F)(F)F)[nH]4)c3)ccc21 + O=C(Nc1ccccc1)c1cc([N+](=O)[O-])ccc1Cl [GW9662] (first compound 0.08 µM, partner dose 2 µM)	76.8
OCc1c[nH]c2ccccc12 [Indole-3-carbinol] + C=CCn1c(=O)c2cnc(Nc3ccc(N4CCN(C)CC4)cc3)nc2n1-c1cccc(C(C)(C)O)n1 [MK1775] (first compound 0.8 µM, partner dose 0.02 µM)	54.4
OCc1c[nH]c2ccccc12 [Indole-3-carbinol] + CN(NC(=O)CC(=O)NN(C)C(=S)c1ccccc1)C(=S)c1ccccc1 [STA4783] (first compound 0.8 µM, partner dose 0.006 µM)	65.8
OCc1c[nH]c2ccccc12 [Indole-3-carbinol] + C[C@@H]1CCN(C(=O)CC#N)C[C@@H]1N(C)c1ncnc2[nH]ccc12 [CP690550] (first compound 0.8 µM, partner dose 1 µM)	88.7
C#Cc1cccc(Nc2ncnc3cc(OCCOC)c(OCCOC)cc23)c1 [erlotinib] + OCCn1cc(-c2cnc3nnn(Cc4ccc5ncccc5c4)c3n2)cn1 [PF04217903] (first compound 0.8 µM, partner dose 1 µM)	108
COCC[n+]1c2c(n(Cc3cnccn3)c1C)C(=O)c1ccccc1C2=O + CO[C@@H]1[C@H](N(C)C(=O)c2ccccc2)C[C@H]2O[C@]1(C)n1c3ccccc3c3c4c(c5c6ccccc6n2c5c31)C(=O)NC4 [Midostaurin] (first compound 0.0004 µM, partner dose 0.08 µM)	86.1
O=C(CCCCCCC(=O)Nc1ccccc1)NO [vorinostat] + O=C(O)c1ccc(-c2c[nH]c3ncc(-c4ccccc4)cc23)cc1C1CCCC1 [GSK650394] (first compound 0.08 µM, partner dose 0.16 µM)	109
COCC[n+]1c2c(n(Cc3cnccn3)c1C)C(=O)c1ccccc1C2=O + O=C(Nc1cccc(Cl)c1)Nc1ncc(CCNc2ncnc3ccsc23)s1 [SNS314] (first compound 0.0004 µM, partner dose 0.0008 µM)	101
OCc1c[nH]c2ccccc12 [Indole-3-carbinol] + NC(=O)Nc1cc(-c2cccc(F)c2)sc1C(=O)N[C@H]1CCCNC1 [AZD7762] (first compound 0.8 µM, partner dose 0.02 µM)	77.7
OCc1c[nH]c2ccccc12 [Indole-3-carbinol] + O=C(O)C(=O)Nc1sc2c(c1C(=O)O)CCNC2 [TCS401] (first compound 0.8 µM, partner dose 1.66667 µM)	99.5
Clc1ccc(Nc2nnc(Cc3ccncc3)c3ccccc23)cc1 [vatalanib] + NCC(=O)Nc1ccc(-n2nc(C(F)(F)F)cc2-c2ccc3c(ccc4ccccc43)c2)cc1 [OSU03012] (first compound 2 µM, partner dose 1 µM)	113

test system: WM451Lu; assay: as above; conditions: library dose: low library concentration; 72 h

Structure (SMILES)	cell count [%]
COCC[n+]1c2c(n(Cc3cnccn3)c1C)C(=O)c1ccccc1C2=O + COc1cc2c(Oc3ccc4[nH]c(C)cc4c3F)ncnc2cc1OCCCN1CCCC1 [cediranib] (first compound 0.0004 µM, partner dose 0.4 µM)	56.2
O=C(CCCCCCC(=O)Nc1ccccc1)NO [vorinostat] + COc1ccc(COc2ccc(Cc3cnc(N)nc3N)cc2OC)cc1 [GW2580] (first compound 0.08 µM, partner dose 1 µM)	129
C#Cc1cccc(Nc2ncnc3cc(OCCOC)c(OCCOC)cc23)c1 [erlotinib] + O=C(O)C(=O)Nc1sc2c(c1C(=O)O)CCNC2 [TCS401] (first compound 0.8 µM, partner dose 1.66667 µM)	118
Cn1c(Nc2ccc(C(F)(F)F)cc2)nc2cc(Oc3ccnc(-c4ncc(C(F)(F)F)[nH]4)c3)ccc21 + COC(=O)c1sccc1S(=O)(=O)Nc1ccc(Nc2ccccc2)cc1OC [GSK0660] (first compound 0.08 µM, partner dose 1 µM)	83.7
COCC[n+]1c2c(n(Cc3cnccn3)c1C)C(=O)c1ccccc1C2=O + Nc1cccc2c1CN(C1CCC(=O)NC1=O)C2=O [lenalidomide] (first compound 0.0004 µM, partner dose 1 µM)	65.4
Cn1c(Nc2ccc(C(F)(F)F)cc2)nc2cc(Oc3ccnc(-c4ncc(C(F)(F)F)[nH]4)c3)ccc21 + COCC[n+]1c2c(n(Cc3cnccn3)c1C)C(=O)c1ccccc1C2=O [YM155] (first compound 0.08 µM, partner dose 0.0004 µM)	86.4
O=C(CCCCCCC(=O)Nc1ccccc1)NO [vorinostat] + NCC(=O)Nc1ccc(-n2nc(C(F)(F)F)cc2-c2ccc3c(ccc4ccccc43)c2)cc1 [OSU03012] (first compound 0.08 µM, partner dose 1 µM)	59.8
Cn1c(Nc2ccc(C(F)(F)F)cc2)nc2cc(Oc3ccnc(-c4ncc(C(F)(F)F)[nH]4)c3)ccc21 + O=C(CCCCCCC(=O)Nc1ccccc1)NO [vorinostat] (first compound 0.08 µM, partner dose 0.08 µM)	78.9
Nc1cccc2c1CN(C1CCC(=O)NC1=O)C2=O (centres undefined) [lenalidomide] + CN(NC(=O)CC(=O)NN(C)C(=S)c1ccccc1)C(=S)c1ccccc1 [STA4783] (first compound 1 µM, partner dose 0.006 µM)	112
C#Cc1cccc(Nc2ncnc3cc(OCCOC)c(OCCOC)cc23)c1 [erlotinib] + COc1cc2ncnc(Nc3ccc(Oc4ccccc4)cc3)c2cc1OC [SrcI1] (first compound 0.8 µM, partner dose 2 µM)	129
Cn1c(Nc2ccc(C(F)(F)F)cc2)nc2cc(Oc3ccnc(-c4ncc(C(F)(F)F)[nH]4)c3)ccc21 + Cc1ccc(NC(=O)c2cccc(N(C)C)c2)cc1NC(=O)c1ccc(O)cc1 [ZM336372] (first compound 0.08 µM, partner dose 2 µM)	84
Clc1ccc(Nc2nnc(Cc3ccncc3)c3ccccc23)cc1 [vatalanib] + CCCCCCCCCCCC1=C(O)C(=O)C=C(O)C1=O [Embelin] (first compound 2 µM, partner dose 1.2 µM)	107
Nc1cccc2c1CN(C1CCC(=O)NC1=O)C2=O (centres undefined) [lenalidomide] + O=C(CCCCCCC(=O)Nc1ccccc1)NO [vorinostat] (first compound 1 µM, partner dose 0.08 µM)	87
O=C(CCCCCCC(=O)Nc1ccccc1)NO [vorinostat] + O=S(=O)(c1ccccc1)N(CC(F)(F)F)c1ccc(C(O)(C(F)(F)F)C(F)(F)F)cc1 [T0901317] (first compound 0.08 µM, partner dose 1.4 µM)	83
OCc1c[nH]c2ccccc12 [Indole-3-carbinol] + COCC[n+]1c2c(n(Cc3cnccn3)c1C)C(=O)c1ccccc1C2=O [YM155] (first compound 0.8 µM, partner dose 0.0004 µM)	72.7
COCC[n+]1c2c(n(Cc3cnccn3)c1C)C(=O)c1ccccc1C2=O + C=CCn1c(=O)c2cnc(Nc3ccc(N4CCN(C)CC4)cc3)nc2n1-c1cccc(C(C)(C)O)n1 [MK1775] (first compound 0.0004 µM, partner dose 0.02 µM)	76.4
C#Cc1cccc(Nc2ncnc3cc(OCCOC)c(OCCOC)cc23)c1 [erlotinib] + COCC[n+]1c2c(n(Cc3cnccn3)c1C)C(=O)c1ccccc1C2=O [YM155] (first compound 0.8 µM, partner dose 0.0004 µM)	73.7
C#Cc1cccc(Nc2ncnc3cc(OCCOC)c(OCCOC)cc23)c1 [erlotinib] + Cc1nc(Nc2ncc(C(=O)Nc3c(C)cccc3Cl)s2)cc(N2CCN(CCO)CC2)n1 [dasatanib] (first compound 0.8 µM, partner dose 0.004 µM)	91.3
Clc1ccc(Nc2nnc(Cc3ccncc3)c3ccccc23)cc1 [vatalanib] + CN(C)S(=O)(=O)c1ccc2c(c1)/C(=C/c1cc3c([nH]1)CCCC3)C(=O)N2 [SU6656] (first compound 2 µM, partner dose 0.4 µM)	98.3
Cn1c(Nc2ccc(C(F)(F)F)cc2)nc2cc(Oc3ccnc(-c4ncc(C(F)(F)F)[nH]4)c3)ccc21 + C[C@@H]1CCN(C(=O)CC#N)C[C@@H]1N(C)c1ncnc2[nH]ccc12 [CP690550] (first compound 0.08 µM, partner dose 1 µM)	103
Cn1c(Nc2ccc(C(F)(F)F)cc2)nc2cc(Oc3ccnc(-c4ncc(C(F)(F)F)[nH]4)c3)ccc21 + Nc1cccc2c1CN(C1CCC(=O)NC1=O)C2=O [lenalidomide] (first compound 0.08 µM, partner dose 1 µM)	83.4
